Assay results from patent US20260042854A1, “ANTI-GLP-1R ANTIBODIES AND USES THEREOF” (SCIWIND BIOSCIENCES USA CO., LTD, priority 2022, published 2026).

Legend:
[1] = Pharmacokinetics in SD rats, single subcutaneous injection; assay type: in vivo; conditions: 5 mg/kg single s.c., mean
Experimental: 6-8-week-old male SD rats were given a single subcutaneous injection of P16288 or P16289 at a dose of 5 mg/kg, with 3 rats in each group. The whole blood of the rats at 5 minutes before administration (−5 min) and 2 h, 4 h, 24 h, 48 h, 72 h, 96 h, 120 h, 168 h, 192 h, 240 h, 264 h after administration were collected to prepare EDTA plasma. The concentration of antibodies in plasma was measured by ELISA. The detailed procedure of the measurement is as follow: The 96-well plate was coated with 1 μg/mL of AffiniPure Goat Anti-Human IgG antibody (Jackson lab, cat. no. 109-005-098) diluted in PBS and incubated overnight at 4° C. The coating solution was removed and the plate was washed with PBST (PBS+0.05% Tween). Then the plate was blocked with 1% BSA, wash with PBST, and added with the standard (P16288 or 16289) diluted in PBS+0.1% BSA+0.1% blank rat plasma at gradient concentrations of 1000, 200, 40, 8, 1.6, 0.32, 0.064, 0 nM, which was used for plotting a standard curve. At the same time, the plasma samples diluted 1000 times in PBS+0.1% BSA were added to other wells, and the plate was incubated at room temperature for 60 min. After washed with PBST, horseradish peroxidase-labeled Goat Anti-Human IgG, Fcγ fragment specific (Jackson lab, cat. no. 109-035-098) was added and the plate was incubated for 60 min. After the plate was washed with PBST, TMB substrate was added for coloration. The reaction was finally terminated with 0.5 M H2SO4, and the absorbance was measured with microplate reader at 450 nm. Drug concentration-time curves were plotted with GraphPad Prism 9, and the pharmacokinetic parameters (Cmax, Tmax, T1/2, AUC and MRT) of the drugs were calculated in non-compartmental model.

humanized GLP-1R mice [2] = assay: OGTT in humanized GLP-1R mice (no exogenous GLP-1 added); assay type: in vivo, mouse; conditions: s.c. once a week x2 (P16288 200 or 400 nmol/kg, P16289 400 nmol/kg); OGTT Day 1 and Day 8
Experimental: 10-week-old male humanized GLP-1R mice (25-32 g) were assigned into 4 groups, with 5 mice in each group. The antibody treatment groups were subcutaneously injected with P16288 (200 nmol/kg), P16288 (400 nmol/kg) or P16289 (400 nmol/kg), respectively, and the vehicle group was subcutaneously injected with vehicle (PBS) once a week for 2 consecutive weeks. The first subcutaneous administration of antibody was on Day 0, and the second subcutaneous administration was on Day 7. OGTTs were performed on Day 1 and Day 8, and glucose solution (25%, w/v) was given to mice by oral administration at a dose of 13.9 mmol/kg. There was an 18-hour fasting period between the administration of the antibody and the oral administration of glucose solution. The blood glucose levels of the mice before (0 min) and 15 min, 30 min, 60 min, 90 min, 120 min and 180 min (or 240 min) after the administration of glucose were measured with blood glucose meter. The AUCs of the blood glucose-time curves of each mouse from 0 to 180 min (or 240 min) were calculated with GraphPad Prism 9. The blood glucose levels and the AUCs were shown in Mean±SEM and the differences among groups were compared. Statistical differences were analyzed with One-way ANOVA. As compared with the vehicle group, * stands for p<0.05; ** stands for p<0.01; *** stands for p<0.001; **** stands for p<0.0001; ns stands for no significance. […]

humanized GLP-1R mice [3] = assay: IPGTT in humanized GLP-1R mice (exogenous GLP-1 added); assay type: in vivo, mouse
Experimental: 10-week-old female humanized GLP-1R mice (25-28 g, Shanghai Model Organisms Center Inc.) were assigned into 5 groups, with 5 mice in each group, and each group was treated according to the scheme in Table 6. The antibody treatment groups were subcutaneously injected with antibody, while the other groups were subcutaneously injected with vehicle (PBS) once a week for 2 consecutive weeks. IPGTTs were performed one day after the administration. The first subcutaneous administration of the antibody was on Day 0, and the second subcutaneous administration was on Day 7.
The blood glucose levels of the mice before (0 min) and 15 min, 30 min, 60 min, 90 min, 120 min and 180 min after the administration of glucose were measured with blood glucose meter. The AUCs of the blood glucose-time curves of each mouse from 0 to 180 min were calculated with GraphPad Prism 9. […] Statistical differences were analyzed with One-way ANOVA. […]
10-week-old female humanized GLP-1R mice (25-28 g) were assigned into 5 groups, with 5 mice in each group, and each group was treated according to the scheme in Table 10. […] The blood glucose levels of the mice before (0 min) and 15 min, 30 min, 60 min, 90 min, 120 min and 180 min after the administration of glucose were measured with blood glucose meter. The AUCs of the blood glucose-time curves of each mouse were calculated with GraphPad Prism 9. […]

B1: P16288: Fully human anti-GLP-1R IgG4 (S228P) antibody; heavy chain SEQ ID NO: 9, light chain SEQ ID NO: 10 (antibody)
heavy: QVQLVQSGAEMKKPGASVKVSCKTSGYRFSTYVISWVRQTPGQGLEWMGWISPYTGDIDYAQKFQGRVTITADESTSTAYMELSRLRSDDTAVYYCARERDGYNFPGMDVWGQGTTVTVSSASTKGPSVFPLAPCSRSTSESTAALGCLVKDYFPEPVTVSWNSGALTSGVHTFPAVLQSSGLYSLSSVVTVPSSSLGTKTYTCNVDHKPSNTKVDKRV[human IgG4 Fc with S228P (EU numbers) not listed]
light: DIQLTQSPSFLSASVGDRVTITCRASQGISSYLAWYQQKPGRAPKLLIYSASTLQRGVPSRFSGSGSGTDFTLTISSLQPEDYATYYCQQADSFPPSFGPGTKVDIKRTVAAPSVFIFPPSDEQLKSGTASVVCLLNNFYPREAKVQWKVDNALQSGNSQESVTEQDSKDSTYSLSSTLTLSKADYEKHKVYACEVTHQGLSSPVTKSFNRGEC
- AUC0-inf obs [1]: 2435.1 µg·h/mL
- Cmax [1]: 15200 ng/mL
- MRT0-inf obs [1]: 132.2 h
- T1/2 [1]: 99.1 h
- Tmax [1]: 42.0 h
- effect of raising blood glucose level in OGTT (in words) (humanized GLP-1R mice [2]): exhibited its effect of raising blood glucose level after both of the two administrations
- duration of regulatory role on blood glucose (humanized GLP-1R mice [3]; P16288 s.c. Day 0 and Day 7, IPGTT up to Day 15): more than 8 days
- antagonism of blood glucose reduction induced by exogenous GLP-1 (in words) (humanized GLP-1R mice [3]; antibody s.c. once a week x2 (P16288 100 and 200 nmol/kg, P16289 200 nmol/kg), IPGTT Day 1, 8, 15, GLP-1 25.0 nmol/kg i.p.): can effectively antagonize the blood glucose reduction induced by exogenous GLP-1
